About 2,200 (0.71%) of roughly 310,000 compounds showed an effect of 50% or more. The effect is printed as a negative number. Some of the results follow.
These compounds were tested against human ether-à-go-go-related gene (hERG) potassium channel (human, UniProt Q12809) (assay: primary screen, population patch clamp on CHO cells stably expressing hERG).
Sequence of human ether-à-go-go-related gene (hERG) potassium channel (Q12809 whole entry, looked up): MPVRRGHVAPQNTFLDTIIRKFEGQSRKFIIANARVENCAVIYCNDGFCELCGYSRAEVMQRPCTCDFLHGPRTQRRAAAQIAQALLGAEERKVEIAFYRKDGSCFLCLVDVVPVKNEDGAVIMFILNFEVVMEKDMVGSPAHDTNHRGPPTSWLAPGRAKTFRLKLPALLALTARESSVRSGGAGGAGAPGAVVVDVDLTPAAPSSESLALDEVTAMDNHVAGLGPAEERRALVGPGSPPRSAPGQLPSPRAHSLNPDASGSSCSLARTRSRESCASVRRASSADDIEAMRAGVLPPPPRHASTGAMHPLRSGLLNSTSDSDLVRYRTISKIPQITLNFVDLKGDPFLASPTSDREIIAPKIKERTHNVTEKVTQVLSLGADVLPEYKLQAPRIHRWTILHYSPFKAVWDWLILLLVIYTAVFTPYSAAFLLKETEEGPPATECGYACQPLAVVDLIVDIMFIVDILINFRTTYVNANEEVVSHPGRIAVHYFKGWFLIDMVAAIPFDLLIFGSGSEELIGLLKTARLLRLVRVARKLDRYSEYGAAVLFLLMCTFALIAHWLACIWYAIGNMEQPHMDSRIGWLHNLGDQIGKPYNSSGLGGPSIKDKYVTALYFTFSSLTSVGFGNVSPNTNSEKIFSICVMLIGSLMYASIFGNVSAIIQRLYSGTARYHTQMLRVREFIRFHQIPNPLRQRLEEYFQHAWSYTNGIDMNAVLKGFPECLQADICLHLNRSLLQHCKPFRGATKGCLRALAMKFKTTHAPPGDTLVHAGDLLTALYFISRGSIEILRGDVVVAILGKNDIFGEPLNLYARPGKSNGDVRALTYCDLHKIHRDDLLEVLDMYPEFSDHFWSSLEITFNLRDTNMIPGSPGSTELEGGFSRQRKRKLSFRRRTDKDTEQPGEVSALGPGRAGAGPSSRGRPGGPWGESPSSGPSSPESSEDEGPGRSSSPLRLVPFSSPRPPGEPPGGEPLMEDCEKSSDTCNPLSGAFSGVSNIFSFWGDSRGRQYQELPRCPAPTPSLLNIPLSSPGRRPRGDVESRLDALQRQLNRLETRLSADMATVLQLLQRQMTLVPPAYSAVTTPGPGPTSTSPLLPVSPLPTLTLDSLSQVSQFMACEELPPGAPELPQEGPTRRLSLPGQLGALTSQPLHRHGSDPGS

Point of comparison: `COC(=O)c1c(NC(=O)c2ccccc2C(=O)O)sc2c1CCC2`, “hERG current change (%, negative = inhibition) at 1uM” value 9.21%. Against it:
- CN(CC(=O)N(CCO)Cc1ccccc1)S(=O)(=O)c1ccc2c(c1)c(=O)n(C)c(=O)n2C — lower, 7.09%
- CC(NCC(O)COCc1cccs1)C1CC2CCC1C2 (stereo not shown) — higher, 11.9%
- O=C(CN1CCN(CC(=O)Nc2ccccc2Cl)CC1)NCC1(N2CCCCC2)CCCCC1 — lower, 0.456%
- Cc1ccc(CN(C(=O)c2cc3ccccc3oc2=O)C2CCS(=O)(=O)C2)cc1 (stereo not shown) — higher, 18.7%
- CCOC(=O)CC(=O)CSC1=C(C#N)C(c2ccccc2OC)CC(=O)N1 (stereo not shown) — lower, -6.1%
- Cc1cccc(N2CCN(C(=O)c3cc4cc(F)ccc4[nH]3)CC2)c1C — higher, 12.9%
- Cc1ccc(-c2c(C(=O)N/N=C/c3ccsc3)nnn2-c2nonc2N)cc1 — higher, 13.1%
- CCc1ccc(OCC(=O)NCc2ccco2)c(Br)c1 — higher, 12.6%
- CC(Sc1ccccc1)C(=O)N1CCN(S(=O)(=O)c2cccc(Br)c2)CC1 (stereo not shown) — lower, 7.59%
- COc1ccc(CN2CCNC(=O)C2CC(=O)NC2CCCC2)cc1OC (stereo not shown) — higher, 9.83%
- CSc1ccc(CN2CCN(C(=O)Cc3ccccc3)CC2)cc1 — higher, 9.67%
- CCOc1cc(N2CCOCC2)c(OCC)cc1NC1=NCCCCC1.Cl — higher, 9.49%
- CCCCCCCc1nc2sc3c(c2c(=O)n1N)CC(C)(C)OC3 — lower, 8.85%
- COC(=O)Cn1c(=NC(=O)c2ccc(Cl)s2)sc2cc(F)ccc21 — lower, 7.96%
- CC(=O)c1ccc(NC(=O)COC(=O)c2ccccc2Sc2ccccc2C#N)cc1 — lower, -4.8%
- O=C1C(Cc2ccccc2O)NC(=S)N1c1ccccc1 (stereo not shown) — higher, 16.9%
- Cc1ccc(-c2nc3ncccc3o2)cc1NC(=O)COc1ccccc1 — lower, 2.62%
- O=S(=O)(c1ccccc1)N1CCN(Cc2ccccc2C(F)(F)F)CC1 — higher, 9.89%
- Cc1ccc(C)c(S(=O)(=O)N2CCN(C(=O)c3cc(S(=O)(=O)NCc4ccccc4)ccc3C)CC2)c1 — lower, 8.77%
- Cc1nc(C(F)(F)F)ccc1C(=O)Nc1ccccc1F — lower, 8.81%
- Cc1cccc(NS(=O)(=O)c2cccc(C(=O)NCCCN3CCOCC3)c2)c1 — lower, 6.74%
- Cc1ccc(C(C)C)c(OCC(=O)NNC(=O)C(C(C)C)N2C(=O)c3ccccc3C2=O)c1 (stereo not shown) — higher, 10.6%
- CC(Nc1nc(N2CCCCC2)nc2ccccc12)c1ccccc1 (stereo not shown) — lower, -14.4%
- CCO.CCOC(=O)C1=C(C)Nc2sc(C(=O)c3ccc(C)cc3)c(N)c2C1c1ccc(C(=O)OC)cc1 (stereo not shown) — lower, 8.38%
- COc1cc2c(cc1OC)C(c1cccc(Br)c1)NC(=O)C2 (stereo not shown) — higher, 16.1%
- COc1ccc(CNc2nc3c(c(=O)[nH]c(=O)n3C)n2CCCc2ccccc2)cc1 — higher, 15.3%
- O=C(CSc1ccccc1)N1CCN(S(=O)(=O)c2cccs2)CC1 — lower, 3.29%
- C[C@]12C[C@H](O)[C@@H]3c4ccc(O)cc4CCC3[C@@H]1CCC2=O (stereo partly shown) — lower, 6.91%
- CC[N+](C)(CC)CCC[n+]1c(-c2ccccc2)c2cc(N)ccc2c2ccc(N)cc21.[I-] — lower, 7.81%
- CCN(Cc1ccccc1)C(=O)CCS(=O)(=O)c1ccc2c(c1)NC(=O)CO2 — lower, 8.49%
- CC(=O)Cc1nsc(NC(=O)c2ccc(COc3cccc(C)c3)o2)n1 — higher, 14.8%
- CC1(C)C2CC[C@]3(C)C(CC=C4[C@@H]5C[C@](C)(CO)CC[C@]5(C(=O)O)CC[C@]43C)[C@@]2(C)CC[C@@H]1O (stereo partly shown) — higher, 16.2%
- Cc1cccc(S(=O)(=O)Nc2nc3ccccc3nc2Nc2ccc3c(c2)OCO3)c1 — lower, 3.39%
- Cc1cc(C)nc(Nc2ccccc2Cl)n1.Cl — higher, 10.5%
- O=C(NCc1ccco1)C1CC(c2ccc(C(F)(F)F)cc2)=NO1 (stereo not shown) — lower, 7.99%
- CSc1ccccc1NC(=O)COc1ccccc1Cl — higher, 14.6%
- O=C(CN(C(=O)c1csnn1)c1ccc(Cl)cc1)NCCc1ccccc1 — higher, 13.4%
- C=CCSc1nnc(-c2cc(Br)ccc2N)c(=O)[nH]1 — higher, 15%
- Cc1nnnn1/C(=C\c1ccccc1)C(=O)OCC(=O)N1CC2(C)CC1CC(C)(C)C2 (stereo not shown) — higher, 10.6%
- Cc1nc(Sc2ccccc2)c(C#N)c(C)c1[N+](=O)[O-] — higher, 19.3%
- O=C(Oc1ccccc1-c1nnco1)c1ccccc1 — higher, 10.7%
- O=C1CSC(=S)N1/N=C/c1cc(Br)ccc1O — higher, 15.6%
- O=C(Nc1ccc2oc(=O)ccc2c1)c1ccc(-c2ccccc2[N+](=O)[O-])o1 — higher, 14.4%
- COc1ccc(OC)c(NC(=O)[C@H]2CC=CC[C@H]2C(=O)O)c1 — lower, 1.97%
- O=C(COc1coc(CN2CCN(c3ccccc3)CC2)cc1=O)Nc1ccccc1 — higher, 10.3%
- COc1cc(/C=N/Nc2nc(C)cc(=O)[nH]2)cc(OC)c1O — higher, 12.6%
- CC(C)NC(=O)CN1CCC(c2nc3ccccc3[nH]2)CC1 — lower, 0.893%
- CCOC(=O)c1[nH]c(C)c(C(=O)OCCOc2cccc(C)c2)c1C — higher, 12.6%
- CSc1c(CC(=O)Nc2ccccc2C(F)(F)F)n(Cc2ccccc2)c2ccccc12 — higher, 12.8%
- COc1ccc(S(=O)(=O)NCC(=O)N(CC(=O)NC(C)(C)C)Cc2cccs2)cc1 — higher, 12.4%
- CSc1ccc(CN(C)C(=O)C23CC4CC(CC(Cl)(C4)C2)C3)cc1 — higher, 16.7%
- CC(=O)c1ccc(N2CCN(CC3CCCCC3)CC2)cc1 — lower, 1.38%
- CC(=O)Nc1ccc(S(=O)(=O)N2CCC(C(=O)NC3CCCC3)CC2)cc1 — higher, 24.6%
- Cc1cc(C(=O)Nc2sccc2C#N)c2ccccc2n1 — higher, 19.1%

— publication PMC4336329 (PLoS ONE, 2015)
